According to the supplement of paper PMC3334620:
Whole data set: some 33,000 sequences, median “E-score (-0.5 to 0.5)” near -0.016, cut for the highest 2% near 0.32. This is one part of the list.

biological target: T1, Stp1 (UniProt B3LFK1); experiment: PBM E-score (8-mer binding enrichment) (E-score (-0.5 to 0.5)); higher = stronger / more preferred TF binding; most listed sequences are background and not binding sites; conditions: protein concentration: 200 nM; construct: GST-full length
T1 sequence: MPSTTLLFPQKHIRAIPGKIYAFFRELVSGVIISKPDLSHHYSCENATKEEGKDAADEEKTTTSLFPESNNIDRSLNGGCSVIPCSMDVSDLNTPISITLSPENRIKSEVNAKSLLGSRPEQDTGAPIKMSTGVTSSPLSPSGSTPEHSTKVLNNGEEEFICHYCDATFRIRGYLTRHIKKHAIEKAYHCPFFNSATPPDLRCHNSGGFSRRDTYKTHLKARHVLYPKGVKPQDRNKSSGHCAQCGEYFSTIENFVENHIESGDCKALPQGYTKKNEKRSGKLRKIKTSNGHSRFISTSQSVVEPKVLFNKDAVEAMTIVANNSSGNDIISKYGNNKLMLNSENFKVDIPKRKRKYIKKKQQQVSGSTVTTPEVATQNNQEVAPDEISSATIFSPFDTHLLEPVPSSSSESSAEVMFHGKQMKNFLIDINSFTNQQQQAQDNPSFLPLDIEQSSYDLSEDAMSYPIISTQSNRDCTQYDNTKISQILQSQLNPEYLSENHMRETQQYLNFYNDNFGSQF
Procedure, shortened: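 GST-tagged yeast TFs (full-length or DNA-binding domain) were made by PURExpress in vitro transcription/translation and applied at about 100-200 nM to universal all-10-mer Agilent arrays. The arrays were made double-stranded by primer extension, on fresh or once-stripped slides. Bound protein was detected with fluorescent anti-GST, and scans were normalised with masliner. Each ungapped eight-base word, pooled with its reverse complement, received an E-score (modified Wilcoxon-Mann-Whitney statistic) from the Universal PBM Analysis Suite.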

Sequence | PBM E-score
ATACCTGG | -0.284
CGATGTGA | -0.148
CGTCTTAA | 0.0546
GTTTATGA | 0.0508
ATCTTGAA | -0.0199
ACAGGGTC | -0.232
AGGGTACA | -0.0897
AATCAGCC | -0.112
TTCTTCAA | 0.121
CTGTTGTC | 0.0748
TAAGATAA | 0.0593
CTTTTACC | 0.0224
CTCTGGCA | -0.203
CCCTACGA | 0.00651
CGACCTCA | -0.0976
ACGAGGAG | -0.115
AAGTGGGC | 0.0237
AAAAGTTT | 0.0837
ATCAGCAT | 0.0572
ATGAACCA | 0.107
ACCATACC | -0.159
AATATACC | -0.00864
CCCAGAGA | -0.224
CATGTGTC | -0.0637
CAACATTA | 0.0679

Sequence | PBM E-score
ACGTCGAC | -0.0461
ACCACTCT | -0.173
ATACCAAG | 0.133
CTGCCCAC | -0.168
GCATAAGC | -0.00045
ACTCCTAC | -0.138
AGACTCGG | -0.332
TATGCTGA | 0.00188
ACTGCAAA | 0.0211
CCCTAACC | -0.0451
CCTGGCAG | -0.189
CCGTGGAA | 0.249
CCGGTTCC | -0.0976
ACTTATCG | -0.107
CGAGCCCG | -0.0629
CCTACTAA | -0.0697
TGCGAGAA | -0.203
ACCACGGA | -0.0752
GCAGTGCA | -0.0796
TAACTGAA | 0.00319
CTGAGCTA | -0.238
ACTTTTCG | 0.144
TTAGAAAA | 0.0226
CACTTGTA | 0.0432
CAGTATCA | 0.0382

Sequence | PBM E-score
ATGCCACG | 0.275
GTATGGCA | 0.134
GTCAGCTA | -0.175
ATATTGTG | 0.0646
ATTAACAG | 0.0966
AGAGGCAC | 0.366
CAGTTCAC | -0.0554
GTGCGCGA | 0.0326
CACACAAA | 0.148
ACTGGCCT | -0.306
TAAATATA | 0.303
GCTTGGCA | -0.156
GTCAAAAA | 0.0881
CTTCGAGA | -0.0597
CCTAGTCA | -0.249
AAAGTGAC | -0.0288
ACGACAAG | -0.0648
GACAGTCC | -0.261
ACAGGCGG | 0.0165
AGGTACGG | 0.15
ATGACATG | -0.118
CAGAGTAG | 0.00396
ACGGCTGG | 0.139
CGCTGATA | 0.0661
CATTAACA | 0.134

Sequence | PBM E-score
CGACTGAG | -0.139
AGTGGAAT | 0.0574
CCCCGCCG | 0.0774
GAGTTGTA | -0.0134
ATAACTTA | 0.212
CATCATGA | -0.0811
ACGACTCC | -0.258
AACCGCAG | -0.218
CATTGTAA | 0.0175
ACCGCTGC | -0.0821
AACCGAGG | -0.205
CGTTCCTC | 0.0526
CACTGTTA | -0.159
CATCAGTA | -0.121
AGCTGAAT | -0.0291
CCTAACGC | 0.278
CTGACCTA | -0.204
GGAGGGCC | -0.285
ACCACACA | 0.00829
ATAACCTG | -0.319
ATGATTGA | 0.0524
ACAGCTGC | -0.0656
AAATTGTT | 0.179
ATCTGCCA | -0.102
CTCGCTTA | 0.0689

Sequence | PBM E-score
CCACGCAC | 0.07
ATATGGTC | -0.0332
AAGCGGGC | -0.248
ATACCTCG | 0.108
CCTATCGC | 0.0771
AAGTCGCA | 0.0561
CCATAAGC | -0.0877
AATCGCGA | 0.0407
CCGATCCG | -0.00424
TATGTCAA | 0.151
AGACGGCA | 0.449
ATGGCGCC | 0.34
CACTGTAG | 0.222
ACTCGACC | -0.222
ATAGATAA | 0.113
CCGGTAAA | -0.0175
AAGAGAGC | -0.12
CAGCACTG | -0.0347
GGCAAGGA | 0.103
CCTGTGCA | -0.0659
CAGACCAG | -0.236
CCAAAGAA | 0.068
AGACATTC | -0.19
AGGGTCTG | -0.329
GATTGACA | 0.0335

Sequence | PBM E-score
AGTCTAAT | -0.0659
AAGCCCGC | 0.0229
AGCCATCG | -0.0975
GACTGATC | -0.0371
GATTGACC | -0.214
ACGAGCCA | -0.0521
AGTACCGA | -0.0516
AGAGCGCC | 0.307
CCACAGGC | -0.242
GCCACAAC | 0.152
GTGGGAAC | -0.00564
CAGCTTCC | -0.135
GGCGCCAC | 0.384
ACACCCCC | -0.409
CGCCGACG | 0.14
CATCGATA | 0.126
ACGACTAT | -0.0291
CTCATCCC | -0.211
GGCGGGAA | 0.0584
ACCGCCCT | -0.14
CAGATTGC | 0.057
AGGGATCG | -0.186
CAAGGCCA | 0.144
CGTGAGGC | 0.305
CACCTCAG | -0.149

Sequence | PBM E-score
ACGACTAA | -0.112
CTAAACAC | 0.0437
GCCAGCAA | -0.114
CCCGTTGA | -0.0684
GGCGGACC | -0.188
TGGATACA | -0.0451
CATCGGGC | -0.221
AAAGTAAG | -0.0278
CCATTCGC | -0.0541
TGTCGTAA | -0.0876
CAGAGGAA | -0.131
CCCGTGTC | 0.187
CGAAAAGC | 0.0076
ATTTAGTC | 0.17
GCCAACTA | 0.0365
GCTGGTCC | -0.253
AATATGTC | 0.153
ACTTGTAA | -0.0058
AAATAAGC | 0.0106
CGCGAGGA | -0.0281
GGCTTTTA | 0.0406
ATCGTAAC | 0.177
